Paper PMC6499641 (Molecular cell, 2019)

Target: Human GST-NDUFS1 (recombinant NDUFS1) (human, UniProt P28331)
Experiment: MST

Kd: 1100 ± 600 nM
B1: GST-MDM2^WT (recombinant GST-tagged MDM2 full length) (natural protein, murine)
chain: MCNTNMSVSTEGAASTSQIPASEQETLVRPKPLLLKLLKSVGAQNDTYTMKEIIFYIGQYIMTKRLYDEKQQHIVYCSNDLLGDVFGVPSFSVKEHRKIYAMIYRNLVAVSQQDSGTSLSESRRQPEGGSDLKDPLQAPPEEKPSSSDLISRLSTSSRRRSISETEENTDELPGERHRKRRRSLSFDPSLGLCELREMCSGGSSSSSSSSSESTETPSHQDLDDGVSEHSGDCLDQDSVSDQFSVEFEVESLDSEDYSLSDEGHELSDEDDEVYRVTVYQTGESDTDSFEGDPEISLADYWKCTSCNEMNPPLPSHCKRCWTLRENWLPDDKGKDKVEISEKAKLENS[left out - about 150 residues]
modifications: NHS ester-modified and fluorescently labeled with Alexa Fluor 647 (in the MST only)
